According to the RNAGym collection of RNA variant scans (doi:10.1093/nar/gkz1192):
The source gives no read counts; variants with many changes may rest on few reads.

B1: CPEB3 Ribozyme (parent)
chain: UAACAGGGGGCCACAGCAGAAGCGUUCACGUCGCAGCCCCUGUCAGAUUCUGGUGAAUCUGCGAAUUCUGCUGUAUAUCUC

Variants of: B1
Assay: self-cleavage, relative activity (ratio to wild type); higher = more cleavage; in vitro, sequencing
Summary of the method: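 For each CPEB3 ribozyme variant, relative activity is its cleaved/total read fraction divided by the unmutated ribozyme's. Barcoded error-prone PCR libraries were transcribed by T7 RNA polymerase (5 hours, 37°C) and held in DNase I for 15 min before an EDTA stop, with cleavage occurring throughout. Template-switching reverse transcription and Illumina sequencing were used to read the RNAs. A 5-read minimum applied, and results are the mean of three batches.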

Variant	self-cleavage
U26G U60C U66C C79U	0.17
U26G U66G U78A	0.19
C27A A28G U66C	0.18
C27A A47G U54C U67C	0.11
C27A A47U A65G U78C	0.08
C27A A57U U58C A64G	0.07
C27A A64G U67C	0.23
C27A A64G U76C	0.23
C27A C34U A35G U60C	0.13
C27A C38A U69A	0.08
C27A G36U U41A A45U	0.1
C27A U31C G53A	0.11
C27A U41A A45U A64G A65U	0.11
C27A U41A A64G A65U	0.12
C27A U41C A45G	0.24
C27A U41C G46C U48C A64G	0.13
C27A U66C C71U	0.09
C27G C32G A45U A77G	0.08
C27G C32U U41C A56G	0.13
C27G U66C A75U	0.09
C27U A28G U41C C71A	0.06

Variant	self-cleavage
C27U A28U A56G U58C U60C G61U C71U	0.04
C27U A35G C79U	0.62
C27U A45C U72A	0.05
C27U A45G A56G	0.19
C27U A57G U72G	0.22
C27U A57G U78C	0.37
C27U G53A U69A	0.14
C27U U31A U41C U60A U72C	0.16
C27U U31C A45G U60A C62U	0.07
C27U U31C G33A A56G A57G U78C	0.06
C27U U31C U60C U80C	0.21
C27U U48C U51A	0.15
C27U U49A U72A	0.36
C27U U54A U76C	0.11
C27U U72G U80C	0.2
A28C A35U A64G	0.33
A28C A35U U54C	0.16
A28C A35U U66C U80A	0.39
A28C A47G A56G U58C U72A U80C	1.06
A28C A57G G63A U66C A75G A77U	0.11
A28C C29A C37G	0.52

Variant	self-cleavage
A28C C34U A56G C59G A64G A65G	0.06
A28C C40U A45G	0.2
A28C U31A U41C G63A A64G A65G	0.27
A28C U31A U54A	0.27
A28C U31C A56U U76C	0.1
A28C U41C G42C U48C	0.11
A28C U41C G52A U72A	0.09
A28C U41C U72A	0.18
A28C U43C A77G	0.22
A28C U43C U49C A64G U72G	0.03
A28C U43C U54C A65U U72C	0.19
A28C U48C U58C	0.15
A28C U49A A56U U72C	0.83
A28C U49C U60G C62U	0.06
A28C U51A U66A	0.12
A28C U54C A65U G70A	0.07
A28C U58G U80C	0.09
A28C U60A U80A	0.35
A28C U60C U72A	0.28
A28C U67C U76A	0.12
A28G A35C A45G C79U	0.26

Variant	self-cleavage
A28G A35G A45G U51A A56G	0.8
A28G A35G A57G A65G U69A G70U	0.34
A28G A35G G42U U49A U58C	0.05
A28G A35G U67C U69C	0.24
A28G A35G U76C	1.16
A28G A35U C68G A77G	0.21
A28G A35U U48C C81U	0.09
A28G A35U U48C U51A A56C A64C	0.07
A28G A35U U60A U69A	0.12
A28G A35U U60A U76C U80A	0.09
A28G A45C A47G U51A U66C	0.08
A28G A45G A65U U76A U80C	0.11
A28G A45G U51C A77U	0.38
A28G A45G U67G U74C A75G	0.06
A28G A45G U76C	0.62
A28G A45U G53A U60C	0.12
A28G A45U U49G A56G U66C U74C	0.06
A28G A45U U80C	0.29
A28G A47G U51C U54A A57U U69A	0.08
A28G A47U A57G A64G U76C	0.12
